Results: the CheMixHub viscosity set
Several values for one entry are separate records, joined by “and”; a condition that tells them apart may be missing. Equal values may be shown once. ± gives the uncertainty stated by the source. This continues a long series; more values of the same kind are listed elsewhere.

Experiment: xn = mol fraction of the nth substance listed

CC(C)[C@H](N)C(=O)O + O
viscosity
Settings | 293.15 K | 298.15 K | 303.15 K | 308.15 K | 313.15 K | 318.15 K | 323.15 K
100 kPa, x1 = 0.00045 | 1.009 ± 0.0063 mPa·s | 0.8968 ± 0.0057 mPa·s | 0.8025 ± 0.0052 mPa·s | 0.7231 ± 0.0048 mPa·s | 0.6557 ± 0.0045 mPa·s | – | –
100 kPa, x1 = 0.0009 | 1.016 ± 0.0063 mPa·s | – | 0.8073 ± 0.0052 mPa·s | 0.7274 ± 0.0048 mPa·s | 0.6589 ± 0.0045 mPa·s | – | –
100 kPa, x1 = 0.0013 | 1.024 ± 0.0064 mPa·s | 0.9089 ± 0.0058 mPa·s | 0.8122 ± 0.0052 mPa·s | – | 0.6623 ± 0.0045 mPa·s | – | –
100 kPa, x1 = 0.00166 | 1.049 ± 0.041 mPa·s | 0.936 ± 0.041 mPa·s | 0.839 ± 0.041 mPa·s | 0.754 ± 0.04 mPa·s | 0.68 ± 0.04 mPa·s | 0.614 ± 0.04 mPa·s | 0.557 ± 0.04 mPa·s
100 kPa, x1 = 0.0018 | 1.031 ± 0.0064 mPa·s | 0.9146 ± 0.0058 mPa·s | 0.8173 ± 0.0053 mPa·s | – | 0.6658 ± 0.0045 mPa·s | – | –
100 kPa, x1 = 0.00225 | – | 0.9211 ± 0.0058 mPa·s | 0.8221 ± 0.0053 mPa·s | 0.7396 ± 0.0048 mPa·s | 0.6691 ± 0.0045 mPa·s | – | –
100 kPa, x1 = 0.00269 | – | 0.9267 ± 0.0059 mPa·s | 0.827 ± 0.0053 mPa·s | 0.7436 ± 0.0049 mPa·s | 0.6723 ± 0.0045 mPa·s | – | –
100 kPa, x1 = 0.00314 | 1.052 ± 0.0065 mPa·s | 0.9336 ± 0.0059 mPa·s | 0.8324 ± 0.0053 mPa·s | 0.748 ± 0.0049 mPa·s | 0.6751 ± 0.0046 mPa·s | – | –
100 kPa, x1 = 0.003502 | 1.104 ± 0.041 mPa·s | 0.986 ± 0.041 mPa·s | 0.883 ± 0.041 mPa·s | 0.794 ± 0.041 mPa·s | 0.72 ± 0.04 mPa·s | 0.647 ± 0.04 mPa·s | –
100 kPa, x1 = 0.00359 | 1.059 ± 0.0066 mPa·s | 0.9386 ± 0.0059 mPa·s | 0.8369 ± 0.0054 mPa·s | 0.7517 ± 0.0049 mPa·s | – | – | –
100 kPa, x1 = 0.005397 | 1.165 ± 0.041 mPa·s | 1.037 ± 0.041 mPa·s | 0.928 ± 0.041 mPa·s | 0.832 ± 0.041 mPa·s | 0.755 ± 0.04 mPa·s | 0.679 ± 0.04 mPa·s | 0.613 ± 0.04 mPa·s
100 kPa, x1 = 0.007209 | 1.222 ± 0.041 mPa·s | 1.087 ± 0.041 mPa·s | 0.972 ± 0.041 mPa·s | 0.871 ± 0.041 mPa·s | 0.786 ± 0.041 mPa·s | 0.708 ± 0.04 mPa·s | 0.639 ± 0.04 mPa·s
100 kPa, x1 = 0.008575 | 1.272 ± 0.041 mPa·s | 1.127 ± 0.041 mPa·s | 1.003 ± 0.041 mPa·s | 0.9 ± 0.041 mPa·s | 0.81 ± 0.041 mPa·s | 0.726 ± 0.04 mPa·s | 0.654 ± 0.04 mPa·s
101 kPa, x1 = 0.0004 | – | – | – | 0.724 ± 0.007 mPa·s | 0.657 ± 0.006 mPa·s | 0.6 ± 0.006 mPa·s | –
101 kPa, x1 = 0.000452 | 1.007 ± 0.021 mPa·s | 0.8955 ± 0.019 mPa·s | 0.8023 ± 0.017 mPa·s | 0.7238 ± 0.015 mPa·s | 0.6572 ± 0.014 mPa·s | 0.6015 ± 0.013 mPa·s | –
101 kPa, x1 = 0.0007 | – | – | – | 0.73 ± 0.007 mPa·s | 0.662 ± 0.006 mPa·s | 0.605 ± 0.006 mPa·s | –
101 kPa, x1 = 0.0009 | 1.016 ± 0.022 mPa·s | 0.9037 ± 0.019 mPa·s | 0.81 ± 0.017 mPa·s | 0.7311 ± 0.015 mPa·s | 0.664 ± 0.014 mPa·s | 0.6079 ± 0.013 mPa·s | –
101 kPa, x1 = 0.001 | – | – | – | 0.743 ± 0.007 mPa·s | 0.668 ± 0.006 mPa·s and 0.673 ± 0.006 mPa·s | 0.61 ± 0.006 mPa·s and 0.615 ± 0.006 mPa·s | –
101 kPa, x1 = 0.00135 | 1.026 ± 0.022 mPa·s | 0.9125 ± 0.019 mPa·s | 0.8182 ± 0.017 mPa·s | 0.7387 ± 0.016 mPa·s | 0.6712 ± 0.014 mPa·s | 0.6147 ± 0.013 mPa·s | –
101 kPa, x1 = 0.0018 | – | 0.9217 ± 0.02 mPa·s | 0.8267 ± 0.018 mPa·s | 0.747 ± 0.007 mPa·s and 0.7467 ± 0.016 mPa·s | 0.6786 ± 0.014 mPa·s | 0.619 ± 0.006 mPa·s and 0.6217 ± 0.013 mPa·s | –
101 kPa, x1 = 0.002245 | 1.046 ± 0.022 mPa·s | 0.931 ± 0.02 mPa·s | 0.8352 ± 0.018 mPa·s | 0.7546 ± 0.016 mPa·s | 0.6861 ± 0.015 mPa·s | 0.6287 ± 0.013 mPa·s | –
101 kPa, x1 = 0.002695 | 1.056 ± 0.022 mPa·s | 0.9403 ± 0.02 mPa·s | 0.8441 ± 0.018 mPa·s | 0.7628 ± 0.016 mPa·s | 0.6938 ± 0.015 mPa·s | 0.6359 ± 0.013 mPa·s | –
